Results from the supplement of paper PMC11283458.
Structures can show the parent of a compound that is named as a salt. This is one part of the list. Most values come without repeats; read them as rough.

Legend:
[1] = test system: Mef2d microexon dual Nano/Firefly luciferase splicing reporter in Neuro-2a cells; assay: B-score of Firefly/Nano luminescence ratio, V1 Mef2d microexon reporter (B-score (plate-normalised)); higher = more Mef2d microexon inclusion; settings: 24 h
[2] = test system: Mef2d microexon dual Nano/Firefly luciferase splicing reporter in Neuro-2a cells; assay: B-score of Nano/Firefly luminescence ratio, V2 Mef2d microexon reporter (B-score (plate-normalised)); higher = more Mef2d microexon inclusion; settings: 24 h
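For B-score of Nano/Firefly luminescence ratio, V2 Mef2d microexon reporter in this document: compounds at 4 µM (PKI library 0.5 µM) on Dox-inducible N2A Flp-In cells with PEST-tagged luciferases, 384-well plates, B-score from per-plate median-polish residual over median absolute residual.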

SMILES | B-score [1] | B-score [2]
O=[N+]([O-])c1ccc(N/N=C/c2cc(Cl)cc(Cl)c2O)nc1 (4 µM) | -9.44 | -1.49
CC[C@]1(O)C[C@H]2CN(CCc3c([nH]c4ccccc34)[C@@](C(=O)OC)(c3cc4c(cc3OC)N(C=O)[C@H]3[C@@](O)(C(=O)OC)[C@H](OC(C)=O)[C@]5(CC)C=CCN6CC[C@]43[C@@H]65)C2)C1 [Vincristine sulfate] (4 µM) | -1.86 | -6.16
COc1cccc2c1C(=O)c1c(O)c3c(c(O)c1C2=O)C[C@@](O)(C(=O)CO)C[C@@H]3O[C@H]1C[C@H](N)[C@@H](O)[C@H](C)O1 (4 µM) | -16.9 | -20.4
CC(C)(C)S(=O)(=O)c1sc(C=O)cc1C=O (4 µM) | -0.674 | -5.43
CC(=O)c1sc(-c2ccccc2)cc1NS(=O)(=O)c1ccc(C)c(Cl)c1 (4 µM) | 2.83 | 36.3
COc1cc(CNc2ccc3c(c2)CCN3C(C)=O)cc(OC)c1OC (4 µM) | -8.3 | -10.1
O=C(Nc1ccccc1)ON=C1CC2CCCC(C1)N2Cc1cccs1 (4 µM) | 11.4 | 4.7
COc1ccccc1C1CCN(c2ccc(C=CC(=O)NNC(=O)c3ccc(C(F)(F)F)cc3)cc2[N+](=O)[O-])CC1 (4 µM) | 8.18 | 2.51
COC(=O)Nc1nc2cc(C(=O)c3ccc(F)cc3)ccc2[nH]1 (4 µM) | -11 | -14.4
COC(OC)c1nc(SCC(=O)Nc2ccc(C(F)(F)F)cc2)ncc1C(=O)O (4 µM) | 3.3 | 2.82
S=C(NN=Cc1ccccn1)NC1CC2C=CC1C2 (stereo unspecified) (4 µM) | 14.3 | 14.6
NC(=NOC(=O)c1c(F)cccc1Cl)c1ccc([N+](=O)[O-])o1 (4 µM) | 3.37 | 2.46
O=C(Nc1ccc(-n2nc(C(F)(F)F)cc2-c2cccs2)cc1)c1cccs1 (4 µM) | 28.3 | 4.21
O=S(=O)(NC(=S)Nc1ccc(Cl)c(Cl)c1)c1ccccc1 (4 µM) | 2.27 | 9.04
Cc1ccc(C(=O)C=CSc2nc(C)cc(C)n2)cc1 (4 µM) | -0.712 | -6.23
CCCc1c(C(=O)ON=C(N)c2ccc(C(F)(F)F)cc2)cnn1-c1ccc(Cl)cc1 (4 µM) | 12.8 | 2.73
Cc1oc2c(F)c(F)c(F)c(F)c2c1C(=O)ONC(N)c1ccc(OS(=O)(=O)N(C)C)cc1 (stereo unspecified) (4 µM) | 7.37 | 5.14
O=c1onc(-c2c(F)cccc2F)n1-c1ccccc1Cl (4 µM) | -13.2 | -0.593
NCCCS(=O)(=O)O [3-Amino-1-propanesulfonic acid sodium] (4 µM) | -4.59 | -2.85

SMILES | B-score [1] | B-score [2]
O=c1cnc2ccccc2n1Cc1cc(Cl)c2c(c1)OCCO2 (4 µM) | 7.04 | 1.72
CCOC(=O)c1sc(SC)c2c1CCC(=CN(C)C)C2=O (4 µM) | 6.3 | 2.92
O=[N+]([O-])c1cccnc1NCC1COc2ccccc2O1 (stereo unspecified) (4 µM) | -1.39 | -2.37
N#Cc1c(-c2ccccc2)c(-c2ccccc2)nn(CC(=O)NNC(=S)Nc2ccccc2)c1=O (4 µM) | -1.14 | -5.53
CC(C)N(C(=O)c1ccc(-c2ccccc2F)cc1)C(C)C (4 µM) | 0.355 | 13.2
COC(OC)C(C)=NNC(N)=S (4 µM) | 12.9 | 30.3
CC[C@@H]1C(=O)N(C)c2cnc(Nc3ccc(C(=O)NC4CCC(N5CCN(CC6CC6)CC5)CC4)cc3OC)nc2N1C(C)C (stereo partly specified) [BI-6727, volasertib] (0.5 µM) | -7.89 | -4.82
CC(C)(C)c1ccc(N2CC(C(=O)O)CC2=O)cc1 (stereo unspecified) (4 µM) | 1.35 | 19.7
COC(=O)Nc1nc2cc(C(=O)c3cccs3)ccc2[nH]1 [Nocodazole] (4 µM) | -8.77 | -15.7
CNC(=S)N/N=C/c1cc(Br)ccc1O (4 µM) | 3.97 | 5.12
Cc1cc(=O)oc2cc(NS(=O)(=O)c3ccc4c(c3)CCO4)ccc12 (4 µM) | -0.278 | 13.2
Cc1onc(-c2ccccc2Cl)c1C(=O)ON=C1C2CC3CC(C2)CC1C3 (4 µM) | 9.21 | 3.09
COc1cc(N2CCC(N3CCN(C)CC3)CC2)ccc1Nc1ncc(Cl)c(Nc2ccccc2S(=O)(=O)C(C)C)n1 (0.5 µM) | -3.63 | -4.26
Cc1cccc(C)c1N=C=Nc1c(C)cccc1C (4 µM) | -3.13 | -7.89
CN(C)c1ccc(-n2nnnc2SCc2ccc(Cl)cc2)cc1 (4 µM) | -9.11 | -12.6
O=C(CC1Sc2ccccc2NC1=O)Nc1ccc(C(F)(F)F)cc1 (stereo unspecified) (4 µM) | 2.02 | 5.05
CCCCCCCCCC(=O)Nc1nc2c(s1)Cc1ccccc1-2 (4 µM) | 3.37 | 3.38
COc1cc2nc(CN3c4ccccc4CC3C)[nH]c(=O)c2cc1OC (stereo unspecified) (4 µM) | -4.87 | -6.92
COc1cc(C(=O)O/N=C(\N)c2ccc(Br)cc2)cc(OC)c1OC (4 µM) | 6.77 | 2.29
